± gives the standard deviation of the averaged measurements. The full ranking holds about 33,000 sequences; the median of “E-score (dimensionless, -0.5 to 0.5)” is about -0.049, and the highest 2% start at about 0.37. The list shows a part of the results.
Test system: T1, PmTbr T-box DNA-binding domain (GST fusion)
T1 sequence: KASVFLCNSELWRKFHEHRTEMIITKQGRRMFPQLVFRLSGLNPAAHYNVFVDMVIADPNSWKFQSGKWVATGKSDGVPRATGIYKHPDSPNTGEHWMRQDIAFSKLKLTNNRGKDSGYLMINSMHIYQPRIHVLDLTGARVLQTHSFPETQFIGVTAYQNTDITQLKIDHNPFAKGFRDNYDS
Assay: PBM E-score of 8-mer (E-score (dimensionless, -0.5 to 0.5)); Tbr is Tbrain of the sea star Patiria miniata (Pm) or the sea urchin Strongylocentrotus purpuratus (Sp); higher = stronger binding preference; most listed sequences are background and not binding sites
Details: the construct has about 5 more residues each side
Method in brief: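 Expression of GST-fused Tbr T-box DNA-binding domains, each holding the full T-box plus roughly five flanking residues, was carried out in BL21 E. coli at 20 °C, with purification by glutathione affinity chromatography. Universal Agilent arrays made double-stranded by primer extension were incubated with the protein at 200 nM in PBS (pH 7.5), then scanned and quantified. All ungapped 8-mers were scored from probe intensities, and each received an enrichment E-score from the Universal PBM Analysis Suite, averaged over duplicate arrays.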

Sequence	PBM E-score of 8-mer
ATGGTTAA	-0.172 ± 0.0082
AAGGCCTT	-0.237 ± 0.029
AGGGTACG	-0.107 ± 0.06
ATCCTAGA	-0.232 ± 0.018
ACAGTAGA	-0.14 ± 0.0017
CAGTAGGG	-0.0306 ± 0.07
ACGTCCCC	-0.17 ± 0.13
AGTGTGAC	0.467 ± 0.0075
ATAGTCGG	-0.173 ± 0.049
GGCGCGGA	0.125 ± 0.075
CAGTGCGA	0.386 ± 0.019
CCGAAGCC	-0.207 ± 0.013
AGCTGATG	-0.055 ± 0.0056
CCGGACTC	-0.126 ± 0.04
AATTAGTC	-0.166 ± 0.1
AATCCCCT	0.0001 ± 0.086
GCCCAACA	0.0617 ± 0.0082
CAGTACAG	-0.142 ± 0.025
CAGGCTTC	-0.0243 ± 0.09
ACTGGTCA	-0.146 ± 0.046
GATTATAA	-0.166 ± 0.075
AGCGGTAC	0.0345 ± 0.018
AAAGGATA	-0.142 ± 0.028
ATTGAGAG	-0.106 ± 0.1
AAGGGCAT	0.126 ± 0.021

Sequence	PBM E-score of 8-mer
GTCTCAAC	0.00691 ± 0.048
AGTCCGAT	-0.145 ± 0.002
AATCACAA	0.199 ± 0.0027
CGGCTCAC	0.0268 ± 0.047
AATGGAAA	-0.292 ± 0.044
CCGGGGAA	-0.285 ± 0.03
CGCGAGCC	0.107 ± 0.0013
GCAGAGAA	-0.238 ± 0.073
GCCGGTCC	-0.328 ± 0.049
AGCCTCTA	-0.0807 ± 0.013
CCCACCCC	0.185 ± 0.041
CAGAGTGC	0.0343 ± 0.018
AGATATTC	-0.13 ± 0.078
AATAAACG	-0.222 ± 0.051
ACATCTTG	-0.0271 ± 0.024
AGGAGCAC	-0.31 ± 0.074
CATGTGTA	0.0643 ± 0.034
AGGCCAAG	-0.282 ± 0.059
AACAGGGA	-0.204 ± 0.0033
CGAATGCA	-0.0425 ± 0.044
ACTTGCTG	0.0128 ± 0.01
ACGGCCTC	-0.166 ± 0.071
GTTTACAA	0.0847 ± 0.0064
CTCATTAC	-0.144 ± 0.012
TCCGCCAA	-0.0166 ± 0.038

Sequence	PBM E-score of 8-mer
GGCATGCA	-0.086 ± 0.02
AACCCTAC	0.0576 ± 0.013
ATTATACG	-0.125 ± 0.048
ATGGACCC	-0.211 ± 0.011
GGCTCGTA	-0.191 ± 0.11
TCCTCTAA	-0.221 ± 0.03
TAGGGTGA	0.199 ± 0.025
CCAGACAA	-0.17 ± 0.077
TACTACGA	0.0382 ± 0.023
TAACCCGA	-0.165 ± 0.032
CTACCCTA	0.0602 ± 0.064
CCGAGTAA	-0.122 ± 0.051
CTGAAGAC	0.0286 ± 0.023
GACTGCAC	-0.181 ± 0.067
GGTCACAC	0.4613 ± 0.0012
ACGACTTA	0.0417 ± 0.048
CGGAGATA	0.06 ± 0.0079
AGGAGCTA	0.0281 ± 0.032
AGTCCAGA	-0.184 ± 0.081
ATCCCGTA	-0.149 ± 0.053
AAGGGATC	-0.151 ± 0.08
CAGCACCG	0.123 ± 0.063
ACAAATAC	-0.00747 ± 0.0026
ATCGGGAC	-0.265 ± 0.064
CGTCTCCA	-0.192 ± 0.0094

Sequence	PBM E-score of 8-mer
CGCAAATA	-0.00643 ± 0.048
CCCTCACC	0.192 ± 0.049
GATTTCAC	0.336 ± 0.048
GGGCGTCA	0.334 ± 0.043
GCCGCCAA	0.141 ± 0.022
ACGAAATC	-0.0591 ± 0.014
CAATCGCC	-0.0698 ± 0.068
AGCGATCG	0.0358 ± 0.054
ATCAGCAC	0.225 ± 0.029
AATTCAAT	-0.161 ± 0.076
GAACATGC	-0.122 ± 0.056
AGTCGAAC	-0.0828 ± 0.11
ACCCAATA	0.0186 ± 0.015
CAACACAA	0.141 ± 0.021
ATAACATG	0.0281 ± 0.035
AGCGCTGC	-0.0413 ± 0.027
AATGGGCT	-0.0829 ± 0.076
TGGGGTAA	-0.16 ± 0.057
GCGCGGCC	-0.0416 ± 0.038
ACGCCCTG	0.0916 ± 0.018
CATGCGCA	0.0565 ± 0.077
CCGACGCA	-0.0454 ± 0.012
AACCGGAA	-0.0726 ± 0.085
CCGCGTCG	-0.0318 ± 0.024
AAGAGGGG	-0.166 ± 0.076

Sequence	PBM E-score of 8-mer
GCTTTAAA	-0.0836 ± 0.039
GATAATAC	-0.0976 ± 0.014
ATACATAT	-0.0446 ± 0.0093
AATGTAAG	-0.0951 ± 0.06
ACGCAGGA	-0.169 ± 0.018
GCGCCCAC	0.122 ± 0.053
AGAGGGCA	-0.0954 ± 0.0035
ACGAAACT	0.116 ± 0.0068
CGCAGCGC	0.106 ± 0.075
ATTCGTCC	-0.232 ± 0.077
ATATACGA	-0.298 ± 0.059
ATAGCGAC	0.212 ± 0.026
ACATGTCT	0.117 ± 0.018
AAAGTGAG	0.219 ± 0.048
AAGCAACG	-0.114 ± 0.14
ATGACTGA	-0.0983 ± 0.02
GAACCGCA	-0.0903 ± 0.015
AACCTAGA	-0.0413 ± 0.052
AATGCTAC	-0.183 ± 0.068
CTAGTGGA	-0.0818 ± 0.033
GTCTCTTA	-0.394 ± 0.036
CGCATTCA	0.0428 ± 0.077
CCGTTCTA	-0.0987 ± 0.064
CCGCAACA	0.0931 ± 0.039
CGCATCAG	-0.0358 ± 0.048

Sequence	PBM E-score of 8-mer
ACGGGTCG	-0.00772 ± 0.094
ATATCACC	0.364 ± 0.013
CGCGCCAA	0.3046 ± 0.001
TGAAGGAA	-0.178 ± 0.0066
ATTTAATG	-0.142 ± 0.018
ACGAAGCT	-0.143 ± 0.014
AGAGCCGC	0.0691 ± 0.026
ATGTAGCC	-0.237 ± 0.027
ACATTGGA	-0.0536 ± 0.027
CCGGTTAC	-0.0412 ± 0.0065
ATCAACCA	-0.067 ± 0.053
CCGAGCCG	-0.165 ± 0.025
ATGATCAA	-0.127 ± 0.051
GGTCCTAC	-0.293 ± 0.07
GCTGATCA	0.0814 ± 0.046
TATTGAAA	-0.151 ± 0.11
ATTCTTGA	-0.128 ± 0.041
ATTGCCCG	-0.14 ± 0.026
AGCGCTGA	0.111 ± 0.018
CATGGCAG	-0.00061 ± 0.0062
GATTCGTA	-0.0701 ± 0.0046
AACAACCC	0.164 ± 0.015
CTGTCCTA	-0.159 ± 0.026
CATCGAAG	-0.0852 ± 0.045
AATTCTGG	-0.141 ± 0.0065

Sequence	PBM E-score of 8-mer
ATTCGTGC	0.0479 ± 0.022
CGATTGCA	-0.0105 ± 0.0098
ACTCTAAG	-0.0809 ± 0.026
CCCCTTAG	-0.195 ± 0.0038
ACTAGTCG	0.06899 ± 0.00056
AATGTTGA	-0.0399 ± 0.032
TGATAGAA	-0.0288 ± 0.044
GATTCTTA	-0.226 ± 0.087
AAAGGCTT	-0.147 ± 0.1
AAGTGCTG	0.283 ± 0.0071
CGCTATCC	0.1683 ± 0.0014
AGGTCTAC	-0.22 ± 0.033
ACTCATTC	0.0418 ± 0.053
GTATATTA	-0.0593 ± 0.012
TCTCCAAA	-0.112 ± 0.014
GCACTCGA	0.0351 ± 0.056
ACTTATTA	0.0517 ± 0.051
ACCAGTTC	-0.0453 ± 0.013
CATAAGCG	0.0288 ± 0.0076
CGAATAGA	0.121 ± 0.017
CCTTGGCG	0.246 ± 0.027
GAGCTTAA	-0.18 ± 0.014
